Laboratory results taken from paper PMC5221442.
Results are given in words; binding and its absence hold for the method and conditions named. Some results given as binding are weak or reduced against the parent protein; the word gives no strength.

Key:
[1] = target: T1, E. coli K-12 OmpC expressed from pBAD33-ompC(K-12) on E. coli O157 ∆waaJ ∆ompC cells (E. coli K-12 (W3110)) (UniProt P06996); assay: phage adsorption assay
T1 sequence: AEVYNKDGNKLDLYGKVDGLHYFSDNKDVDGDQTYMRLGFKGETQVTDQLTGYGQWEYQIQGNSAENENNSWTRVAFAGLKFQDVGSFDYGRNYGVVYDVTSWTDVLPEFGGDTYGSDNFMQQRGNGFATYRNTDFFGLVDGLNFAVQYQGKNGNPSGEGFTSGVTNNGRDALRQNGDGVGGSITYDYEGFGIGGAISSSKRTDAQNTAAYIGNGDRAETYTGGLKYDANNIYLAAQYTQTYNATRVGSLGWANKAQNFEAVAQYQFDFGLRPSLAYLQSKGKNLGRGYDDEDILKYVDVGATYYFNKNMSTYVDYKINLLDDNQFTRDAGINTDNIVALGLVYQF

[2] = target: T2, outer membrane protein C (OmpC) of E. coli K-12, endogenous on BW25113 cells and its LPS mutants (E. coli K-12 (endogenous in BW25113)) (UniProt P06996); assay: phage adsorption assay
T2 sequence: T1 sequence

bacteriophage T4 long tail fiber protein gp37 (distal tip, DT), wild type, on T4D phage particles (from UniProt P03744 1-1026)
binding [1]: binds | binding [2]: binds

gp37 of T4 mutant Nik8 (G943S), on phage particles (from UniProt P03744 1-1026)
binding [2]: no binding

gp37 of T4 mutant Nik1 (V941E), on phage particles (from UniProt P03744 1-1026)
binding [2]: no binding

gp37 of T4 mutant Nik2 (A955E), on phage particles (from UniProt P03744 1-1026)
binding [2]: no binding
